About 300 (9.4%) of roughly 3,200 compounds showed activity. Only a part is listed here, and it is no random draw.
Tested on: A673/TR/shEF
Assay: cell viability (LOESS-normalised, relative to median of negative controls) (log2 ratio); higher = more viable cells (less compound effect), active = hit call of the paper (over 3 MAD below the median)
Settings: treatment time: 72 h
Summary of the method: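 Doxycycline, present or absent from 24 h before compounds, was used to induce EWS-FLI1 shRNA knockdown in A673/TR/shEF Ewing sarcoma cells at 1,500 per well in 384-well plates. Cells then received library compounds at two or more concentrations, or DMSO controls, for three days. Viability was measured by CellTiter-Glo luminescence on an Envision reader, and per-plate LOESS correction, division by the negative-control median and log2 transformation followed.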

[1] = 0.25 µM, library screen: screen1, EWS-FLI1 expression: high (no doxycycline)
[2] = 0.25 µM, library screen: screen1, EWS-FLI1 expression: low (doxycycline-induced shRNA knockdown)
[3] = 2.5 µM, library screen: screen1, EWS-FLI1 expression: high (no doxycycline)
[4] = 2.5 µM, library screen: screen1, EWS-FLI1 expression: low (doxycycline-induced shRNA knockdown)
[5] = 0.103 µM, library screen: screen3, EWS-FLI1 expression: high (no doxycycline)
[6] = 0.103 µM, library screen: screen3, EWS-FLI1 expression: low (doxycycline-induced shRNA knockdown)
[7] = 0.25 µM, library screen: screen2, EWS-FLI1 expression: high (no doxycycline)
[8] = 0.25 µM, library screen: screen2, EWS-FLI1 expression: low (doxycycline-induced shRNA knockdown)
[9] = 0.308 µM, library screen: screen3, EWS-FLI1 expression: high (no doxycycline)
[10] = 0.308 µM, library screen: screen3, EWS-FLI1 expression: low (doxycycline-induced shRNA knockdown)
[11] = 0.926 µM, library screen: screen3, EWS-FLI1 expression: high (no doxycycline)
[12] = 0.926 µM, library screen: screen3, EWS-FLI1 expression: low (doxycycline-induced shRNA knockdown)
[13] = 2.5 µM, library screen: screen2, EWS-FLI1 expression: high (no doxycycline)
[14] = 2.5 µM, library screen: screen2, EWS-FLI1 expression: low (doxycycline-induced shRNA knockdown)
[15] = 2.8 µM, library screen: screen3, EWS-FLI1 expression: high (no doxycycline)
[16] = 2.8 µM, library screen: screen3, EWS-FLI1 expression: low (doxycycline-induced shRNA knockdown)
[17] = 8.3 µM, library screen: screen3, EWS-FLI1 expression: high (no doxycycline)
[18] = 8.3 µM, library screen: screen3, EWS-FLI1 expression: low (doxycycline-induced shRNA knockdown)
[19] = 25 µM, library screen: screen3, EWS-FLI1 expression: high (no doxycycline)
[20] = 25 µM, library screen: screen3, EWS-FLI1 expression: low (doxycycline-induced shRNA knockdown)

Measured: cell viability (log2)

C=C(C)[C@@H]1CC[C@]2(C(=O)O)CC[C@]3(C)[C@H](CC[C@@H]4[C@@]5(C)CC[C@H](O)C(C)(C)[C@@H]5CC[C@]43C)[C@@H]12
inactive: [1] 0.0559 | [2] 0.0935 | [3] 0.0993 | [4] 0.08

Oc1ccc2c(c1)OC[C@]1(O)Cc3cc(O)c(O)cc3[C@H]21
inactive: [1] 0.113 | [2] 0.129 | [3] 0.0951 | [4] 0.187

C1N2CN3CN1CN(C2)C3
inactive: [1] 0.0393 | [2] -0.017 | [3] 0.125 | [4] 0.0127

O=C(O)C1=C[C@@H](O)[C@@H](O)[C@H](O)C1
inactive: [1] 0.0508 | [2] 0.101 | [3] 0.101 | [4] 0.134

NC(=O)c1ccccc1O
inactive: [1] 0.141 | [2] 0.134 | [3] 0.156 | [4] 0.19

COc1ccc(OC)c(CN2CCN(Cc3cccnc3)CC2)c1
inactive: [1] 0.114 | [2] 0.038 | [3] 0.0976 | [4] -0.0472

CCOC(=O)N1CCC(=C2c3ccc(Cl)cc3CCc3cccnc32)CC1
inactive: [5] 0.0636 | [6] 0.0767 | [1] 0.0808 | [2] 0.1 | [7] 0.133 | [8] 0.129 | [9] 0.0192 | [10] 0.0882 | [11] 0.0803 | [12] 0.0805 | [3] 0.114 | [4] 0.057 | [13] 0.112 | [14] 0.0012 | [15] 0.112 | [16] 0.0258 | [17] 0.0723 | [18] 0.0616 | [19] 0.0441 | [20] 0.0227

Nc1nc(F)nc2c1ncn2[C@@H]1O[C@H](COP(=O)(O)O)[C@@H](O)[C@@H]1O
inactive: [5] -0.0279 | [6] -0.000356 | [9] 0.0256 | [10] 0.153 | [11] 0.075 | [12] 0.0953 | [15] -0.0277 | [16] 0.0929 | [17] 0.103 | [18] 0.0436 | [19] 0.0709 | [20] 0.0764

COc1ccc(-c2coc3cc(O)ccc3c2=O)cc1
active: [1] -0.6
inactive: [2] 0.0672 | [3] 0.234 | [4] 0.103

N.N.N.N.N.O.[Ru+2]
inactive: [7] 0.216 | [8] 0.0909 | [13] 0.256 | [14] 0.0639

C[C@@H](Oc1ccccc1)C(=O)N[C@@H]1C(=O)N2[C@@H]1SC(C)(C)[C@@H]2C(=O)O
inactive: [1] 0.0816 | [2] 0.0301 | [3] 0.188 | [4] 0.189

C=C1C2CC[C@@]3(C)[C@H](c4ccoc4)OC(=O)C[C@]13O[C@H]1C[C@H](OC(C)=O)C(C)(C)[C@H](CC(=O)OC)[C@@]21C
inactive: [1] 0.122 | [2] 0.0225 | [3] 0.146 | [4] 0.192

Oc1c(Br)cc(Br)c2cccnc12
inactive: [1] 0.0596 | [2] 0.131 | [3] 0.0179 | [4] -0.646

CCC(=O)O[C@H]1CC[C@H]2[C@@H]3CCc4cc(O)ccc4[C@H]3CC[C@]12C
inactive: [1] 0.0933 | [2] 0.137 | [3] 0.162 | [4] 0.0928

CC(C)C[C@H](NC(=O)[C@H](Cc1ccccc1)NC(=O)c1cnccn1)B(O)O
active: [5] -0.242 | [9] -2.56 | [10] -0.914 | [11] -3.95 | [12] -1.75 | [15] -4.24 | [16] -4.06 | [17] -4.26 | [18] -3.84 | [19] -4.26 | [20] -4.16

O=C(OCCN1CCOCC1)C1(c2ccccc2)CCCCC1
inactive: [7] 0.05 | [8] 0.0784 | [13] 0.12 | [14] 0.156

COc1ccc(CC(C)NCC(O)c2ccc(O)c(NC=O)c2)cc1 (stereo unspecified)
inactive: [7] 0.238 | [8] 0.0619 | [13] 0.163 | [14] 0.0459

COC(=O)C(O)[C@H]1C(C)(C)[C@@H](OC(C)=O)[C@@H]2CC3=C4CC(=O)O[C@@H](c5ccoc5)[C@]4(C)CCC3[C@@]1(C)C2=O (stereo partly specified)
inactive: [1] 0.11 | [2] 0.119 | [3] 0.15 | [4] 0.0885

c1ccc([C@@H]2CCC[C@@H]2NC2=NCCCCCCCCCCC2)cc1
inactive: [7] 0.117 | [8] 0.0677 | [13] 0.18 | [14] 0.156

C[C@H](N[C@@H](CCc1ccccc1)C(=O)O)C(=O)N1CCC[C@H]1C(=O)O
inactive: [5] 0.0689 | [6] 0.0524 | [9] 0.0142 | [10] 0.0116 | [11] 0.0648 | [12] 0.0211 | [15] 0.0542 | [16] 0.0458 | [17] 0.0356 | [18] 0.065 | [19] 0.137 | [20] 0.0987

O=C(O)c1ccc(OC2CSC2)cc1
inactive: [1] -0.0489 | [2] 0.0317 | [3] 0.0805 | [4] 0.0727

O=S(=O)(O)C1CCNCC1
inactive: [7] 0.301 | [8] 0.132 | [13] 0.235 | [14] 0.104

COC(=O)[C@H](c1ccccc1Cl)N1CCc2sccc2C1
inactive: [5] -0.0292 | [6] -0.0575 | [1] 0.0125 | [2] 0.0195 | [9] 0.0719 | [10] 0.00209 | [11] 0.00906 | [12] 0.116 | [3] 0.0801 | [4] -0.0426 | [15] 0.144 | [16] 0.0581 | [17] -0.00472 | [18] 0.0633 | [19] 0.0377 | [20] 0.114

C[C@]12CCC(=O)C=C1CC[C@@H]1[C@@H]2C(=O)C[C@@]2(C)[C@H]1CC[C@]2(O)C(=O)CO
inactive: [1] 0.0836 | [2] 0.0764 | [7] 0.16 | [8] 0.0585 | [3] 0.142 | [4] 0.067 | [13] 0.112 | [14] 0.0827

COCCCC/C(=N\OCCN)c1ccc(C(F)(F)F)cc1
inactive: [7] 0.0374 | [8] -0.0394 | [13] 0.0814 | [14] 0.00912

C[C@@H]1CC[C@H]2C(C)(C)[C@H]3C[C@@]12CC[C@@]3(C)O
inactive: [1] -0.00565 | [2] -0.0471 | [3] -0.0433 | [4] 0.0591

Cc1c(Cl)cccc1Nc1ccccc1C(=O)O
inactive: [1] 0.0842 | [2] -0.0167 | [3] 0.146 | [4] -0.0951

COc1cc(C)c(C(=O)O)c(O)c1
inactive: [1] 0.0224 | [2] 0.0265 | [3] 0.0516 | [4] -0.0134

Cc1ccc(N(CC2=NCCN2)c2cccc(O)c2)cc1
inactive: [1] 0.0993 | [2] 0.033 | [7] 0.301 | [8] 0.0826 | [3] 0.164 | [4] 0.142 | [13] 0.319 | [14] 0.168

CNC(=O)[C@H]1O[C@@H](n2cnc3c(N)ncnc32)[C@H](O)[C@@H]1O
inactive: [7] 0.133 | [8] 0.153 | [13] 0.0199 | [14] 0.101

CCc1ccc(CCOc2ccc(CC3SC(=O)NC3=O)cc2)nc1 (stereo unspecified)
inactive: [1] -0.0419 | [2] 0.0243 | [3] 0.0652 | [4] 0.0733

c1ccc(CC2=NCCN2)cc1
inactive: [1] 0.0668 | [2] 0.137 | [3] 0.131 | [4] 0.191

NCCCCC(=O)O
active: [7] -0.118

COc1c(O)cc2occ(-c3ccc(O)cc3)c(=O)c2c1O
inactive: [1] 0.15 | [2] 0.0261 | [3] 0.0979 | [4] 0.0895

OCCN1CCN(CCCN2c3ccccc3Sc3ccc(C(F)(F)F)cc32)CC1
inactive: [1] 0.123 | [2] -0.116 | [7] 0.0872 | [8] 0.0735 | [3] 0.0717 | [4] 0.0734 | [13] 0.0281 | [14] 0.0587

CC(C)(Oc1ccc(CCNC(=O)c2ccc(Cl)cc2)cc1)C(=O)O
inactive: [1] 0.103 | [2] 0.0276 | [3] 0.165 | [4] 0.0799

CC1=CC(=O)[C@H]2C(C)(C)CCC[C@]2(C)[C@@]1(O)CCc1ccoc1
inactive: [1] 0.0791 | [2] 0.0513 | [3] 0.195 | [4] 0.0373

O=C(c1cc(Cc2n[nH]c(=O)c3ccccc23)ccc1F)N1CCN(C(=O)C2CC2)CC1
active: [19] -0.244 | [20] -0.143
inactive: [5] -0.00614 | [6] 0.0146 | [9] -0.0732 | [10] -0.0144 | [11] 0.00937 | [12] 0.0508 | [15] -0.137 | [16] 0.0104 | [17] -0.158 | [18] -0.00135

O=C1c2ccccc2C(=O)C1c1ccccc1
inactive: [1] 0.00829 | [2] 0.109 | [3] 0.0875 | [4] 0.204

CC(C)N=C(N)/N=C(\N)Nc1ccc(Cl)cc1
inactive: [1] 0.128 | [2] 0.0586 | [3] 0.107 | [4] 0.132

Clc1ccc2c(c1)C(N1CCNCC1)=Nc1ccccc1O2
inactive: [1] 0.113 | [2] 0.0477 | [7] 0.153 | [8] 0.0853 | [3] 0.0833 | [4] -0.127 | [13] 0.0223 | [14] 0.0703

— the supplement of paper PMC6089552
